In patent publication US10618918B2, “Substituted boronic acids as antimicrobials” (priority 2015, dated 2020):
At least one read-out could not be matched to a standard name with certainty.

How the values were obtained:
ECL1002 = assay: Tigemonam potentiation (MPC@4), strain ECL1002; type: cell-based; details: minimum BLI concentration inhibiting growth with tigemonam 4 μg/mL; tested up to 40 μg/mL
KP1009 CTX-M-15 = assay: Tigemonam potentiation (MPC@4), strain KP1009 CTX-M-15; details: minimum BLI concentration inhibiting growth with tigemonam 4 μg/mL; tested up to 40 μg/mL
EC1010 CMY-6 = assay: Tigemonam potentiation (MPC@4), strain EC1010 CMY-6; type: cell-based; details: minimum BLI concentration inhibiting growth with tigemonam 4 μg/mL; tested up to 40 μg/mL
ec302 TEM-10 = assay: Tigemonam potentiation (MPC@4), strain ec302 TEM-10; type: cell-based; details: minimum BLI concentration inhibiting growth with tigemonam 4 μg/mL; tested up to 40 μg/mL
KP1010 SHV-12 = assay: Tigemonam potentiation (MPC@4), strain KP1010 SHV-12; details: minimum BLI concentration inhibiting growth with tigemonam 4 μg/mL; tested up to 40 μg/mL
ec308 SHV-5 = assay: Tigemonam potentiation (MPC@4), strain ec308 SHV-5; type: cell-based; details: minimum BLI concentration inhibiting growth with tigemonam 4 μg/mL; tested up to 40 μg/mL
KP1005 CTX-M-14 = assay: Aztreonam potentiation (MPC@4), strain KP1005 CTX-M-14; details: minimum BLI concentration inhibiting growth with aztreonam 4 μg/mL; tested up to 40 μg/mL

| Structure (SMILES) | TIG MPC4 ECL1002 (ECL1002) | TIG MPC4 CTX-M-15 KP1009 (KP1009 CTX-M-15) | TIG MPC4 CMY-6 EC1010 (EC1010 CMY-6) | TIG MPC4 TEM-10 ec302 (ec302 TEM-10) | TIG MPC4 SHV-12 KP1010 (KP1010 SHV-12) | TIG MPC4 SHV-5 ec308 (ec308 SHV-5) | AZT MPC4 CTX-M-14 KP1005 (KP1005 CTX-M-14) |
| --- | --- | --- | --- | --- | --- | --- | --- |
| O=C(O)[C@H]1/C(=C/CO)O[C@@H]2CC(=O)N21 [Clavulanic Acid, reference compound] | Z (Z = MPC@4 > 20 μg/mL) | X (X = MPC@4 ≤ 5 μg/mL) | Z (Z = MPC@4 > 20 μg/mL) | X (X = MPC@4 ≤ 5 μg/mL) | X (X = MPC@4 ≤ 5 μg/mL) | X (X = MPC@4 ≤ 5 μg/mL) | X (X = MPC@4 ≤ 5 μg/mL) |
| O=C(O)c1c(F)c(F)cc2c1OB(O)CC2 [Compound 35, 6,7-Difluoro-2-hydroxy-3,4-dihydro-1,2-benzoxaborinine-8-carboxylic acid] | – | X (X = MPC@4 ≤ 5 μg/mL) | X (X = MPC@4 ≤ 5 μg/mL) | X (X = MPC@4 ≤ 5 μg/mL) | X (X = MPC@4 ≤ 5 μg/mL) | X (X = MPC@4 ≤ 5 μg/mL) | X (X = MPC@4 ≤ 5 μg/mL) |
| C#CCOc1ccc2c(c1C(=O)O)OB(O)CC2 [Compound 25, 2-Hydroxy-7-prop-2-ynoxy-3,4-dihydro-1,2-benzoxaborinine-8-carboxylic acid] | – | X (X = MPC@4 ≤ 5 μg/mL) | X (X = MPC@4 ≤ 5 μg/mL) | X (X = MPC@4 ≤ 5 μg/mL) | X (X = MPC@4 ≤ 5 μg/mL) | X (X = MPC@4 ≤ 5 μg/mL) | Y (Y = 5 μg/mL < MPC@4 ≤ 20 μg/mL) |
| C[C@@H]1Cc2cccc(C(=O)[O-])c2O[B-]1(O)O.[Na+].[Na+] [Compound 10, Disodium; (3R)-4,4-dihydroxy-3-methyl-5-oxa-4-boranuidabicyclo[4.4.0]deca-1(6),7,9-triene-7-carboxylate] | – | Z (Z = MPC@4 > 20 μg/mL) | X (X = MPC@4 ≤ 5 μg/mL) | Z (Z = MPC@4 > 20 μg/mL) | Z (Z = MPC@4 > 20 μg/mL) | Z (Z = MPC@4 > 20 μg/mL) | Z (Z = MPC@4 > 20 μg/mL) |
| CSc1ccc2c(c1C(=O)[O-])O[B-](O)(O)CC2.[Na+].[Na+] [Compound 36, Disodium; 4,4-dihydroxy-8-methylsulfanyl-5-oxa-4-boranuidabicyclo[4.4.0]deca-1(6),7,9-triene-7-carboxylate] | – | Y (Y = 5 μg/mL < MPC@4 ≤ 20 μg/mL) | X (X = MPC@4 ≤ 5 μg/mL) | Z (Z = MPC@4 > 20 μg/mL) | X (X = MPC@4 ≤ 5 μg/mL) | Y (Y = 5 μg/mL < MPC@4 ≤ 20 μg/mL) | Y (Y = 5 μg/mL < MPC@4 ≤ 20 μg/mL) |
| O=C([O-])c1cncc2c1O[B-](O)(O)CC2.[Na+].[Na+] [Compound 59, Disodium; 4,4-dihydroxy-5-oxa-9-aza-4-boranuidabicyclo[4.4.0]deca-1(6),7,9-triene-7-carboxylate] | – | Y (Y = 5 μg/mL < MPC@4 ≤ 20 μg/mL) | X (X = MPC@4 ≤ 5 μg/mL) | Y (Y = 5 μg/mL < MPC@4 ≤ 20 μg/mL) | Y (Y = 5 μg/mL < MPC@4 ≤ 20 μg/mL) | Z (Z = MPC@4 > 20 μg/mL) | Y (Y = 5 μg/mL < MPC@4 ≤ 20 μg/mL) |
| O=C([O-])c1c(CSC2CNC2)ccc2c1O[B-](O)(O)CC2.[Na+].[Na+] [Compound 19, Disodium; 8-(azetidin-3-ylsulfanylmethyl)-4,4-dihydroxy-5-oxa-4-boranuidabicyclo[4.4.0]deca-1(6),7,9-triene-7-carboxylate] | – | Y (Y = 5 μg/mL < MPC@4 ≤ 20 μg/mL) | X (X = MPC@4 ≤ 5 μg/mL) | Z (Z = MPC@4 > 20 μg/mL) | X (X = MPC@4 ≤ 5 μg/mL) | Y (Y = 5 μg/mL < MPC@4 ≤ 20 μg/mL) | Y (Y = 5 μg/mL < MPC@4 ≤ 20 μg/mL) |
| NS(=O)(=O)Nc1ccc2c(c1C(=O)[O-])O[B-](O)(O)CC2.[Na+].[Na+] [Compound 52, Disodium; 4,4-dihydroxy-8-(sulfamoylamino)-5-oxa-4-boranuidabicyclo[4.4.0]deca-1(6),7,9-triene-7-carboxylate] | – | Z (Z = MPC@4 > 20 μg/mL) | X (X = MPC@4 ≤ 5 μg/mL) | Z (Z = MPC@4 > 20 μg/mL) | X (X = MPC@4 ≤ 5 μg/mL) | Z (Z = MPC@4 > 20 μg/mL) | Z (Z = MPC@4 > 20 μg/mL) |
| N#Cc1ccc2c(c1C(=O)[O-])O[B-](O)(O)CC2.[Na+].[Na+] [Compound 54, Disodium; 8-cyano-4,4-dihydroxy-5-oxa-4-boranuidabicyclo[4.4.0]deca-1(6),7,9-triene-7-carboxylate] | – | Z (Z = MPC@4 > 20 μg/mL) | X (X = MPC@4 ≤ 5 μg/mL) | Z (Z = MPC@4 > 20 μg/mL) | Z (Z = MPC@4 > 20 μg/mL) | Z (Z = MPC@4 > 20 μg/mL) | Z (Z = MPC@4 > 20 μg/mL) |
| O=C([O-])c1cc(F)cc2c1O[B-](O)(O)CC2.[Na+].[Na+] [Compound 37, Disodium; 9-fluoro-4,4-dihydroxy-5-oxa-4-boranuidabicyclo[4.4.0]deca-1(6),7,9-triene-7-carboxylate] | – | Z (Z = MPC@4 > 20 μg/mL) | X (X = MPC@4 ≤ 5 μg/mL) | Z (Z = MPC@4 > 20 μg/mL) | Y (Y = 5 μg/mL < MPC@4 ≤ 20 μg/mL) | Z (Z = MPC@4 > 20 μg/mL) | Y (Y = 5 μg/mL < MPC@4 ≤ 20 μg/mL) |
| O=C([O-])c1c(OC(F)F)ccc2c1O[B-](O)(O)CC2.[Na+].[Na+] [Compound 56, Disodium; 8-(difluoromethoxy)-4,4-dihydroxy-5-oxa-4-boranuidabicyclo[4.4.0]deca-1(6),7,9-triene-7-carboxylate] | – | X (X = MPC@4 ≤ 5 μg/mL) | X (X = MPC@4 ≤ 5 μg/mL) | X (X = MPC@4 ≤ 5 μg/mL) | X (X = MPC@4 ≤ 5 μg/mL) | X (X = MPC@4 ≤ 5 μg/mL) | X (X = MPC@4 ≤ 5 μg/mL) |
| O=C(O)c1cccc2c1OB(O)CN2S(=O)(=O)Cc1ccccc1 [Compound 4, 4-(BENZYLSULFONYL)-2-HYDROXY-3,4-DIHYDRO-2H-BENZO[E][1,4,2]OXAZABORININE-8-CARBOXYLIC ACID] | – | Z (Z = MPC@4 > 20 μg/mL) | X (X = MPC@4 ≤ 5 μg/mL) | Z (Z = MPC@4 > 20 μg/mL) | Z (Z = MPC@4 > 20 μg/mL) | Z (Z = MPC@4 > 20 μg/mL) | Z (Z = MPC@4 > 20 μg/mL) |
| O=C(O)c1c(-c2c[nH]nn2)ccc2c1O[B-](O)(O)CC2 [Compound 16, Disodium; 4,4-dihydroxy-8-(1H-triazol-5-yl)-5-oxa-4-boranuidabicyclo[4.4.0]deca-1(6),7,9-triene-7-carboxylate] | – | Y (Y = 5 μg/mL < MPC@4 ≤ 20 μg/mL) | X (X = MPC@4 ≤ 5 μg/mL) | Y (Y = 5 μg/mL < MPC@4 ≤ 20 μg/mL) | X (X = MPC@4 ≤ 5 μg/mL) | Y (Y = 5 μg/mL < MPC@4 ≤ 20 μg/mL) | X (X = MPC@4 ≤ 5 μg/mL) |
